The values below come from paper PMC12040169 (PLOS Biology, 2025).

Each structure is given as a SMILES string. Some of the results follow.

The subject of this experiment is T1, C. trachomatis L2/434/Bu expressing GFP (CTL2-GFP).
T1 construct: L2/434/Bu GFP intracellular growth in HeLa cells
Further details: species or system HeLa; C. trachomatis total inclusion area by high-content imaging, normalised to DMSO. The following applies: total inclusion area; 28.5 h, 10 µM; inhibitor. In short, it runs like this: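 After bulk GFP and resorufin fluorescence reads, cells were fixed, stained with Hoechst and imaged by high-content microscopy. Inclusion area and number (GFP) stood in for chlamydial growth, nuclei count (Hoechst) for host cell viability. MICs were derived as for the bulk readout.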
As to `CCOc1ccccc1NC(=O)CSc1cnn[nH]1` [CBK270005], the “% of control remaining” value turned out to be 91.9537. For `COc1cccc(CN2CCN(C(=O)N3CCCC3)[C@@H](C)C2)c1` [CBK285491], the “% of control remaining” value worked out at 75.9126. Regarding `N=c1n(CCN2CCCCC2)c2ccccc2n1CC(=O)c1cccs1` [CBK278244B], the “% of control remaining” value was 103.671. For `O=C(O)c1cc(S(=O)(=O)N2CCOCC2)c(Cl)cc1NC1CCCCC1` [CBK264576] the value was 101.393; for `O=C(NCCNc1ccc(Cl)cc1[N+](=O)[O-])c1ccccc1Br` [CBK263538], 109.13; for `Cc1ccc(-c2ncc(OCC3CCCN3C)nc2N)c(C)c1` (centres unmarked) [CBK145137], 73.9191. `CC(C)(C)OC(=O)N1CCC(CNS(=O)(=O)c2cccc3cccnc23)CC1` [CBK086017]: the “% of control remaining” value was 114.859.

Regarding `Cc1cc(CN2CCN(c3nc(-c4ccccc4)nc4ccccc34)CC2)no1` [CBK296654], the “% of control remaining” value was 100.836. The figure for `Cc1c(NC(=O)c2ccc3c(c2)C(=O)N(Cc2ccco2)C3=O)cccc1C(=O)O` [CBK268627] is 142.13; for `Fc1ccc(-c2cn(-c3cncnc3)nn2)c(F)c1` [CBK112989] it is 105.353; for `CCC1CCC2(CC1)NC(=O)N(Cc1nc(-c3cccs3)no1)C2=O` (centres unmarked) [CBK305005] it is 114.507. With `Cn1c(SCC(=O)c2ccc(Cl)cc2)nnc1-c1cnccc1C(F)(F)F` [CBK067698], the “% of control remaining” value was 64.9333.

For `CCN1CCN(CCCOc2ccccc2Cc2ccccc2)CC1` [CBK267379G], the “% of control remaining” value was 83.176. `CC[C@@H]1COCCN1C(=O)c1sc2ccccc2c1Cl` [CBK103641]: the “% of control remaining” value was found to be 93.5934.

Regarding `CSCCCNC(=O)N1CCNC(=O)C1` [CBK155848], the “% of control remaining” value was 95.282.

On to `COc1ccc2c(c1)C1(CC(=O)N(CCc3scnc3C)C1=O)C(=O)N2C` (centres unmarked) [CBK075213], for which the “% of control remaining” value was 95.9825. The figure for `Cc1ccccc1CSc1nc2ccc([N+](=O)[O-])cc2[nH]1` [CBK267879] is 82.0633; for `N#CCC(=O)Nc1ccc(F)c(Cl)c1` [CBK085905] it is 80.6984; for `Brc1cnc(OCc2ccccc2)nc1OCc1ccccc1` [CBK261274] it is 105.716. The figure for `Cc1ccccc1C(=O)NCCNC(=O)c1nonc1N` [CBK267677] is 87.8642; for `NC(=O)c1ccccc1NC(=O)CN1CCN(Cc2cccc(Cl)c2)CC1` [CBK270320] it is 79.9486; for `Cc1ccc2c(c1)CCCN2C(=O)c1csc2c(C(F)(F)F)cc(N3CCOCC3)nc12` [CBK028367] it is 66.0769. For `O=C(c1cnccn1)N1CCC(Cc2ccccc2)CC1` [CBK200181], the “% of control remaining” value is reported as 93.9066.
